To fix the notation:
B1: LINE1-full (parent)
chain: UACGUAGGUGGUUUUCCCCUGAUAGUGCUAAGGGGGCCUGGAAGUUUGGACUGGGCAGAGCUCAACACAGCGUGGCAAAGUGGCUGUGGCUAGACUGCCUCUCUGGAUUCCUCGUCACUCAGCAGGGCAUCUCUGAGAGAAAUGCC

Read counts are not given, so values of variants with three or more changes are uncertain.

Variants of B1 are the subject of this series. Kind of series: self-cleavage, relative activity (ratio to wild type); higher = more cleavage; in vitro, sequencing; the parent is a self-cleaving ribozyme.
With G36A G58U U100G, the self-cleavage came out at 0.05.
Under G32U A117U A142C stands 1.36; under G34U A94U A121G G125A, 0.29; under A31U U81C U143C, 1.09.
Take A31U U39C G40C U108C A136G: the self-cleavage was determined as 0.
Under G33A U112A A140G stands 0.96; under G36C U62C G88A U132C, 0.03.
For C38A U62A C120U the value was 0.04.
On to U39A A43G U62C, for which the self-cleavage was determined as 0.04.
For G34U A94C U108C U130C the value was 0.12; for G36A U73C U112C A136G A138G, 2.15.
Under G35C U39A U91A C131G A140G stands 0.57.
Under C37G G55U U115C stands 0.36; under G35A C56U U87G U96A U132G A140G, 0.02.
On to G33A A69U A117C U132C, for which the self-cleavage was found to be 0.
Under U39A A59G A64U U108C stands 0; under G35C A65G A79G, 0.
Under C38U U39C U45C stands 0.89; under G36A A67G G86A U91C A92G U119C U130C, 0.
For G35A U46G U100C A117G U130C the value was 2.51; for C37A U47A U96A, 0.04.
Regarding G34A C71A A94G A142G, the self-cleavage was found to be 0.05.
On to A31U U104A A142G, for which the self-cleavage was 1.23.
Under A31U G54A U100C stands 0.5; under U39A A43G U119A A142G, 0.39.
Regarding G36A U73C A138G, the self-cleavage is 1.23.
Under G33A A124G A136U stands 1.53.
For G32A G74A U132C the value was 1.2; for A31U U46C A57U A65G U73A A79G A138G, 0.
Under G36A U112C U119C U130C stands 1.57; under G35C A50G A64U, 0.43; under G32A U87C A92G G137U, 0.27.
Regarding C37G A79G A124G, the self-cleavage was 1.17.
Consider G36A A69G A94G, for which the self-cleavage was found to be 0.11.
Under G32A A64U A67U A79G A124G stands 0.04.
Under G34A A57G A65U stands 0.16; under U39A A57U C146U, 0.07.
For G35A A59G A92G U143C the value was 0; for G32A C51A A94G A142G, 0.11; for G36A A92C U119C, 0.19.
With C38U G55U A141G, the self-cleavage amounted to 0.26.
In the case of G35A A77U G93U, the self-cleavage was found to be 0.01.
Under G32A U47A G55A U96G C116U U134C A142G stands 0.01; under U39A A64U U73C U85A C128U U134A, 0.03; under G32A C38U G74A U91C U102C, 0.39.
Turning to C38U A67U U81C U87C U100C A138G, the self-cleavage amounted to 0.
In the case of G34A A42G U85A C95U A142G, the self-cleavage was 0.09.
For G34U A67G G74A U81C U87A the value was 0.11.
For A31U C101U A136G the value was 1.25; for C37U A50G U134C, 0.7; for G32U G105A U119C U132C, 1.47.
For C38U A65U A107G A141G U143C the value was 0.25; for U39A A43G U130C, 1.21; for C38A U46A A138U, 1.1.
Regarding C37A U62C U102A, the self-cleavage stood at 0.03.
For G36A A107G U134A the value was 0.87; for G34U G74A U115A, 1.09.
As for G32A A67U U115C, the self-cleavage is 0.13.
Turning to G35A G54A U62C U112C, the self-cleavage is 0.04.
For U39A A57G U91C the value was 0.11; for U39A A42G A57G U96C U109A A129U, 0.66.
Under G34A U96A A141G stands 0.07.
Under C38U U45G U47C stands 1.44.
For G33A G82U A138G, the self-cleavage was 2.02.
Under G36A A42G A69G stands 0.65; under A31U U39C A59U U73A A77G A141G, 1.67.
For C38U U52A U81A A121G A124G the value was 1.81.
As for C37U G74A A124G G135A, the self-cleavage was found to be 1.18.
As to G35U A42G U130C, the self-cleavage came out at 1.64.
Under G36U G53A U81G A138U stands 1.01; under C37A A43G A121C, 1.57; under G35A A79G U87A, 0.05.
In the case of G36A G58A A94G U115G, the self-cleavage is 0.04.
For G34U A42G U134C U143A the value was 1.09; for G33A A50G U91C A92G, 0.24; for C37U C90U A121G, 0.06.
As for G34A U46G U96C, the self-cleavage amounted to 0.05.
For G33U U52G U108C the value was 1.36; for G33U A64U U130G, 0.45; for A31U U45C A117G U132A A141G, 1.44.
For C37U U45C A129U the value was 1.05; for G34U A77U U87C A138G, 0.06; for C37A A69U G75A U119C, 0.04.
Under G35A A42G G75A C103U stands 1.25; under U39A A42U A77G, 1.65.
Consider A31U U47C U87A, for which the self-cleavage came out at 0.09.
For G32U U73A U104C U134C the value was 1.75; for U39A A42G G70A A136G A142U, 0.14; for C37U C71U U108C A129G, 0.87.
For A31U U52C A69U G82A A136U the value was 0.06; for G34U U46A U119A, 1.22; for A31U C66U A78G, 0.06.
As to G33A A57C U130C A138G, the self-cleavage stood at 0.16.
For C37U G40A A78C the value was 1.38.
For C37U U39C A43G the value was 0.83.
For U39A A57C C145U the value was 0.13.
As to U39A A57G A59G U100C, the self-cleavage was 0.16.
For G34A A92G A117U the value was 0.06; for G32U U47C U100A A124G, 1.23.
For A31U G35U U39C A50G A141G the value was 0.15.
For G35U A42U C90U, the self-cleavage was found to be 0.
Under G36C A57U A69G U96A C110U stands 0.1; under C37G G93U U96C, 0.04.
Under G35A U62C C68A stands 0.03; under G32C U47C U104C, 1.11; under G35U U87A U130C U132C A140G, 0.07.
Under G35A A42G C133A A138U stands 1.79; under C37A C71A A121U, 0.21.
As for U39A A59G A64C G127U, the self-cleavage came to 0.1.
Under G33A A59U A92G stands 0.04; under G32U A57G A78G, 0.25.
For U39A A50U A79G U91C U132A the value was 0; for G32A A92C G106A A117C, 0.11; for G34A G40U U73A U115A A121G, 1.32.
Consider G35C U45C G75A U143C, for which the self-cleavage is 1.06.
For G34U A92G U143A, the self-cleavage is 0.08.
Regarding G33U A77U U134C, the self-cleavage was found to be 0.99.
For G33A U109G C110U the value was 0.72; for C37G C90U U100C, 0.16; for G32A A77G A138U, 1.41.
For A31U U62C U96A the value was 0.04; for G34A A142G U143C, 1.84; for U39A A64G G75U, 0.13.
For C38A U73A G75U U104A the value was 0.66.
Consider C37G A79U A117U U143A, for which the self-cleavage is 1.99.
A31U U104A U108C: the self-cleavage amounted to 1.34.
Under G34A U87C U91A C103A stands 0.07.
Under G33U G55A A78G A94C A124G stands 0.05.
Regarding G35A U47C U73A A78G, the self-cleavage turned out to be 0.18.
Under C37U U109A U119C A141G U143C stands 1.26; under G35A U52G A92G A129G A141G, 0.07.
For C38U A78G A142G the value was 1.61.
Under C38U A64U A69C A94G stands 0.14.
G35A U47A A77G C116U U132C: the self-cleavage amounted to 1.71.
For G36A A57G C84A the value was 0.01; for G36A A67G U96C, 0.04; for A31U G58U U91C A94G, 0.09.
For G32C A79G G83A U85C the value was 0.12.
Under G32A C120U A138G stands 1.4; under G32A U47C A67U U91C A140G, 0.
Regarding G34U G36A U104A A136G A142G, the self-cleavage is 1.44.
Under G32C U52A G72U stands 1.03; under G33A U119A G135A, 1.5; under G32A A77G A78G, 0.61.
For G33A U47A A124G the value was 0.74; for G33U A42G A124U, 1.08.
Turning to G35U U104C A129G U143A, the self-cleavage is 1.24.
For G36A U102C A140G the value was 1.35; for G36A G55A A64U A65G U96C A142G, 0.02.
Turning to G34C A59U U96C, the self-cleavage amounted to 0.07.
Consider G34U A65G U73A G125A, for which the self-cleavage turned out to be 0.02.
Under G35A C56A A79G A94U U104C stands 0; under C37A A43G A142G, 1.2.
Under G35A A59G U81C A129G stands 0; under G32A U109A U132C, 1.1.
Under A31U U85A U100C U108C A138G stands 0; under G36U G53A U109C, 1.21.
Turning to G32A U96C U119C, the self-cleavage worked out at 0.26.
In the case of C38A U73C U81C U115C, the self-cleavage is 0.
For G33A U115A A129G the value was 0.97; for C38U U47A G54U A77G A94G U108C A121G A142G, 0.09; for G33A U45C A141G, 1.2.
With G34U A42G A121U, the self-cleavage was determined as 1.64.
For C38U U73A A141G the value was 2.42.
Under G34C A42G G44A stands 1.75; under G34A A57U A129G, 0.04; under G35A A94G A117G U130C, 0.
